Reference: US20230265217A1 (TWIST BIOSCIENCE, published 2023)

B1: Bispecific Antibody 1 (bispecific antibody)
chain: EVQLVESGGGLVQPGGSLRLSCAASGSTFSINAMGWFRQAPGKEREFVAGITSSGGYTNYADSVKGRFTISADNSKNTAYLQMNSLKPEDTAVYYCAADGVPEYSDYASGPVWGQGTLVTVSSGGGGSGGGGSASEVQLVESGGGLVQPGGSLRLSCAASGFTFSPSWMGWFRQAPGKEREFVATINEYGGRNYADSVKGRFTISADNSKNTAYLQMNSLKPEDTAVYYCARVDRDFDYWGQGTLVTVSSGGGGS[gap - human IgG1 Fc with C220S (EU numbers)]
notes: also called Bi-Ab1; Bi-Ab1_ExpiCHO
B2: Bispecific Antibody 2 (bispecific antibody)
chain: EVQLVESGGGLVQPGGSLRLSCAASGFTFSPSWMGWFRQAPGKEREFVATINEYGGRNYADSVKGRFTISADNSKNTAYLQMNSLKPEDTAVYYCARVDRDFDYWGQGTLVTVSSGGGGS[gap - human IgG1 Fc with C220S (EU numbers)]GGGSGGGGSASEVQLVESGGGLVQPGGSLRLSCAASGSTFSINAMGWFRQAPGKEREFVAGITSSGGYTNYADSVKGRFTISADNSKNTAYLQMNSLKPEDTAVYYCAADGVPEYSDYASGPVWGQGTLVTVSS
notes: also called Bi-Ab2; Bi-Ab2_ExpiCHO

Key:
Assay in all cases: Carterra SPR
[1] = molecular target: SARS-CoV-2 S protein trimer (P.1 Gamma Brazil variant) [SPN-C52Hg] (SARS-CoV-2)
[2] = molecular target: T1, SARS-CoV-2 S protein trimer (Alpha B.1.1.7 UK variant) [SPN-C52H6] (SARS-CoV-2)
T1 construct: also called B.1.1.7 Alpha UK variant

[3] = molecular target: T2, SARS-CoV-2 S protein trimer (Kappa B.1.617.1 India variant) [SPN-C52Hr] (SARS-CoV-2)
T2 construct: also called B.1.617.1 Kappa India variant

[4] = molecular target: T3, SARS-CoV-2 S protein trimer (Delta B.1.617.2 India variant) [SPN-C52He] (SARS-CoV-2)
T3 construct: also called B.1.617.2 Delta India variant [SPN-C52he]

[5] = molecular target: T4, SARS-CoV-2 S protein trimer (Beta B.1.351 SA variant) [SPN-C52Hk] (SARS-CoV-2)
T4 construct: also called B.1.351 Beta SA variant

Row | Binder | kon [1] [M⁻¹ s⁻¹] | kon [2] [M⁻¹ s⁻¹] | kon [3] [M⁻¹ s⁻¹] | kon [4] [M⁻¹ s⁻¹] | kon [5] [M⁻¹ s⁻¹] | Kd [3] [pM] | koff [3] [s⁻¹] | Kd [4] [pM] | koff [4] [s⁻¹]
1 | B1 | 200000 | 145000 | 239000 | 195000 | 165000 | – | – | – | –
2 | B2 | 297000 | 174000 | 328000 | 322000 | 266000 | 186 | 6.09e-05 | 115 | 3.71e-05
